# Data as given in the supplement of paper PMC6089552.
# Hit rate of the full screen: of about 3,200 compounds, about 300 (9.4%) showed activity. The entries are a selection whose mix differs from that of the whole data set.
# Tested on: A673/TR/shEF
# Assay: cell viability (LOESS-normalised, relative to median of negative controls) (log2 ratio); higher = more viable cells (less compound effect), active = hit call of the paper (over 3 MAD below the median)
# Settings: treatment time: 72 h
# In short: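 A673/TR/shEF Ewing sarcoma cells (1,500 per well, 384-well plates) were grown with or without doxycycline to induce EWS-FLI1 shRNA knockdown, starting 24 h before compounds. Library compounds at two or more concentrations, with DMSO controls, were added for three days. Cell viability was read by CellTiter-Glo luminescence on an Envision reader, then LOESS-corrected per plate, divided by the median of negative controls and log2-transformed. Hits were wells at least three median absolute deviations from the median of all screened wells.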
# [1] = 0.103 µM, library screen: screen3, EWS-FLI1 expression: high (no doxycycline)
# [2] = 0.103 µM, library screen: screen3, EWS-FLI1 expression: low (doxycycline-induced shRNA knockdown)
# [3] = 0.25 µM, library screen: screen1, EWS-FLI1 expression: high (no doxycycline)
# [4] = 0.25 µM, library screen: screen1, EWS-FLI1 expression: low (doxycycline-induced shRNA knockdown)
# [5] = 0.308 µM, library screen: screen3, EWS-FLI1 expression: high (no doxycycline)
# [6] = 0.308 µM, library screen: screen3, EWS-FLI1 expression: low (doxycycline-induced shRNA knockdown)
# [7] = 0.926 µM, library screen: screen3, EWS-FLI1 expression: high (no doxycycline)
# [8] = 0.926 µM, library screen: screen3, EWS-FLI1 expression: low (doxycycline-induced shRNA knockdown)
# [9] = 2.5 µM, library screen: screen1, EWS-FLI1 expression: high (no doxycycline)
# [10] = 2.5 µM, library screen: screen1, EWS-FLI1 expression: low (doxycycline-induced shRNA knockdown)
# [11] = 2.8 µM, library screen: screen3, EWS-FLI1 expression: high (no doxycycline)
# [12] = 2.8 µM, library screen: screen3, EWS-FLI1 expression: low (doxycycline-induced shRNA knockdown)
# [13] = 8.3 µM, library screen: screen3, EWS-FLI1 expression: high (no doxycycline)
# [14] = 8.3 µM, library screen: screen3, EWS-FLI1 expression: low (doxycycline-induced shRNA knockdown)
# [15] = 25 µM, library screen: screen3, EWS-FLI1 expression: high (no doxycycline)
# [16] = 25 µM, library screen: screen3, EWS-FLI1 expression: low (doxycycline-induced shRNA knockdown)
# [17] = 0.25 µM, library screen: screen2, EWS-FLI1 expression: high (no doxycycline)
# [18] = 0.25 µM, library screen: screen2, EWS-FLI1 expression: low (doxycycline-induced shRNA knockdown)
# [19] = 2.5 µM, library screen: screen2, EWS-FLI1 expression: high (no doxycycline)
# [20] = 2.5 µM, library screen: screen2, EWS-FLI1 expression: low (doxycycline-induced shRNA knockdown)
# [21] = 25 µM, library screen: screen2, EWS-FLI1 expression: high (no doxycycline)
# [22] = 25 µM, library screen: screen2, EWS-FLI1 expression: low (doxycycline-induced shRNA knockdown)
smiles,measurement,setting,value
COc1ccccc1OCC(O)CO (configuration not stated),cell viability (log2),[1],inactive: 0.0395
same,cell viability (log2),[2],inactive: 0.0626
same,cell viability (log2),[3],inactive: 0.0769
same,cell viability (log2),[4],inactive: 0.0685
same,cell viability (log2),[5],inactive: 0.0622
same,cell viability (log2),[6],inactive: 0.0684
same,cell viability (log2),[7],inactive: 0.0429
same,cell viability (log2),[8],inactive: 0.0992
same,cell viability (log2),[9],inactive: 0.235
same,cell viability (log2),[10],inactive: -0.0232
same,cell viability (log2),[11],inactive: 0.104
same,cell viability (log2),[12],inactive: 0.0405
same,cell viability (log2),[13],inactive: 0.0621
same,cell viability (log2),[14],inactive: 0.0553
same,cell viability (log2),[15],inactive: 0.0205
same,cell viability (log2),[16],inactive: 0.0447
Cc1cc(=O)[nH]c(=S)[nH]1,cell viability (log2),[3],inactive: 0.12
same,cell viability (log2),[4],inactive: 0.0466
same,cell viability (log2),[9],inactive: 0.162
same,cell viability (log2),[10],inactive: 0.133
NCC1COc2ccccc2O1 (configuration not stated),cell viability (log2),[3],inactive: 0.104
same,cell viability (log2),[4],inactive: -0.0116
same,cell viability (log2),[9],inactive: 0.0686
same,cell viability (log2),[10],inactive: 0.0513
CCOc1cc2ncc(C#N)c(Nc3ccc(F)c(Cl)c3)c2cc1NC(=O)/C=C/CN(C)C,cell viability (log2),[1],inactive: 0.06
same,cell viability (log2),[2],inactive: 0.0264
same,cell viability (log2),[5],inactive: 0.0695
same,cell viability (log2),[6],inactive: 0.0377
same,cell viability (log2),[7],inactive: 0.0744
same,cell viability (log2),[8],inactive: -0.098
same,cell viability (log2),[11],active: -0.201
same,cell viability (log2),[12],active: -0.422
same,cell viability (log2),[13],inactive: -0.14
same,cell viability (log2),[14],inactive: -0.477
same,cell viability (log2),[15],active: -1.43
same,cell viability (log2),[16],active: -0.678
Cc1c(N(C)C)c(=O)n(-c2ccccc2)n1C,cell viability (log2),[3],inactive: 0.0406
same,cell viability (log2),[4],inactive: 0.0855
same,cell viability (log2),[9],inactive: 0.134
same,cell viability (log2),[10],inactive: 0.102
Oc1c(Cl)cc(Cl)c(Cl)c1Cc1c(O)c(Cl)cc(Cl)c1Cl,cell viability (log2),[3],inactive: 0.107
same,cell viability (log2),[4],inactive: 0.122
same,cell viability (log2),[9],inactive: 0.135
same,cell viability (log2),[10],inactive: 0.0898
CCN(CC)CCNC(=O)c1c(C)[nH]c(/C=C2\C(=O)Nc3ccc(F)cc32)c1C,cell viability (log2),[15],active: -0.697
same,cell viability (log2),[16],active: -0.541
COc1ccc(/C=C/C(=O)Nc2ccccc2C(=O)O)cc1OC,cell viability (log2),[1],inactive: 0.0619
same,cell viability (log2),[2],inactive: -0.0298
same,cell viability (log2),[17],inactive: 0.153
same,cell viability (log2),[18],inactive: 0.0355
same,cell viability (log2),[5],inactive: -0.00626
same,cell viability (log2),[6],inactive: 0.0321
same,cell viability (log2),[7],inactive: 0.0957
same,cell viability (log2),[8],inactive: 0.0642
same,cell viability (log2),[19],inactive: 0.106
same,cell viability (log2),[20],inactive: 0.00335
same,cell viability (log2),[11],inactive: 0.026
same,cell viability (log2),[12],inactive: 0.0457
same,cell viability (log2),[13],inactive: -0.04
same,cell viability (log2),[14],inactive: 0.0688
same,cell viability (log2),[15],inactive: 0.0974
same,cell viability (log2),[16],inactive: 0.042
CCOC(=O)C1=C(COCCN)NC(C)=C(C(=O)OC)C1c1ccccc1Cl (configuration not stated),cell viability (log2),[1],inactive: 0.118
same,cell viability (log2),[2],inactive: 0.0485
same,cell viability (log2),[5],inactive: 0.025
same,cell viability (log2),[6],inactive: 0.0765
same,cell viability (log2),[7],inactive: 0.0185
same,cell viability (log2),[8],inactive: 0.0366
same,cell viability (log2),[11],inactive: 0.0891
same,cell viability (log2),[12],inactive: 0.028
same,cell viability (log2),[13],inactive: 0.0206
same,cell viability (log2),[14],inactive: 0.0165
same,cell viability (log2),[15],inactive: 0.0234
same,cell viability (log2),[16],inactive: -0.0161
Oc1ccc(/C=C/c2cc(O)cc(O)c2)cc1,cell viability (log2),[17],active: -1.5
same,cell viability (log2),[18],active: -1.81
same,cell viability (log2),[19],active: -2.99
same,cell viability (log2),[20],active: -3.07
same,cell viability (log2),[15],active: -0.23
CO[C@H]1CC2CC[C@@H](C)[C@@](O)(O2)C(=O)C(=O)N2CCCC[C@H]2C(=O)O[C@H]([C@H](C)C[C@@H]2CC[C@@H](OP(C)(C)=O)[C@H](OC)C2)CC(=O)[C@H](C)/C=C(\C)[C@@H](O)[C@@H](OC)C(=O)[C@H](C)C[C@H](C)/C=C/C=C/C=C/1C,cell viability (log2),[1],active: -0.93
same,cell viability (log2),[2],active: -0.714
same,cell viability (log2),[5],active: -0.852
same,cell viability (log2),[6],active: -0.724
same,cell viability (log2),[7],active: -0.888
same,cell viability (log2),[8],active: -0.755
same,cell viability (log2),[11],active: -0.837
same,cell viability (log2),[12],active: -0.688
same,cell viability (log2),[13],active: -0.983
same,cell viability (log2),[14],active: -0.734
same,cell viability (log2),[15],active: -1.05
same,cell viability (log2),[16],active: -0.738
CCOc1ccc(C(=O)Nc2ccc(NC(=O)CC)cc2)cc1Cl,cell viability (log2),[3],inactive: 0.102
same,cell viability (log2),[4],inactive: 0.0179
same,cell viability (log2),[9],inactive: 0.0812
same,cell viability (log2),[10],inactive: -0.0835
C[n+]1c2cc(N)ccc2cc2ccc(N)cc21,cell viability (log2),[19],active: -0.404
same,cell viability (log2),[21],active: -4.23
same,cell viability (log2),[22],active: -2.18
O=C(N[C@H](CO)[C@H](O)c1ccc([N+](=O)[O-])cc1)C(Cl)Cl,cell viability (log2),"0.025 µM, library screen: screen2, EWS-FLI1 expression: high (no doxycycline)",inactive: 0.147
same,cell viability (log2),"0.025 µM, library screen: screen2, EWS-FLI1 expression: low (doxycycline-induced shRNA knockdown)",inactive: 0.0538
same,cell viability (log2),[1],inactive: 0.125
same,cell viability (log2),[2],inactive: 0.0882
same,cell viability (log2),[3],inactive: 0.0946
same,cell viability (log2),[4],inactive: 0.141
same,cell viability (log2),[17],inactive: 0.177
same,cell viability (log2),[18],inactive: 0.067
same,cell viability (log2),[5],inactive: 0.0951
same,cell viability (log2),[6],inactive: 0.122
same,cell viability (log2),[7],inactive: 0.0751
same,cell viability (log2),[8],inactive: 0.12
same,cell viability (log2),[9],inactive: 0.152
same,cell viability (log2),[10],inactive: 0.143
same,cell viability (log2),[19],inactive: 0.0948
same,cell viability (log2),[20],inactive: 0.142
same,cell viability (log2),[11],inactive: 0.0465
same,cell viability (log2),[12],inactive: 0.194
same,cell viability (log2),[13],inactive: 0.139
same,cell viability (log2),[14],inactive: 0.109
same,cell viability (log2),[21],inactive: 0.0991
same,cell viability (log2),[22],inactive: 0.027
same,cell viability (log2),[15],inactive: 0.119
same,cell viability (log2),[16],inactive: 0.0928
